Laboratory results published in patent publication US10363298B2, “Immunomodulatory compounds” (priority 2014, dated 2019).

Columns and labels:
[1] = biological target: SpCBMTD (printed SpCBMT; CBM of S. pneumoniae NanA sialidase, residues 121-305, SEQ ID NO: 4, fused to trimerisation domain of P. aeruginosa pseudaminidase, residues 333-438, SEQ ID NO: 6) (Streptococcus pneumoniae, UniProt P62575); experiment: Surface plasmon resonance (Biacore T-100): binding to immobilized multivalent, biotinylated α-2,3-sialyllactose-PAA; conditions: mean ± s.d. of three replicates
[2] = biological target: Sp2CBMTD (printed Sp2CBM; two tandem CBMs of S. pneumoniae NanA sialidase, residues 121-305, SEQ ID NO: 4, fused to trimerisation domain of P. aeruginosa pseudaminidase, residues 333-438, SEQ ID NO: 6) (Streptococcus pneumoniae, UniProt P62575); experiment: as above; conditions: mean ± s.d. of three replicates
[3] = read-out: ka (association ('on') rate constant), 15 °C
[4] = read-out: ka (association ('on') rate constant), 25 °C
[5] = read-out: ka (association ('on') rate constant), 37 °C
[6] = read-out: kd (dissociation ('off') rate constant), 15 °C
[7] = read-out: kd (dissociation ('off') rate constant), 25 °C
[8] = read-out: kd (dissociation ('off') rate constant), 37 °C

## CC(=O)N[C@H]1[C@H]([C@H](O)[C@H](O)CO)O[C@@](O[C@H]2[C@@H](O)[C@@H](CO)O[C@@H](O[C@H]3[C@H](O)[C@@H](O)C(O)O[C@@H]3CO)[C@@H]2O)(C(=O)O)C[C@@H]1O (stereo partly drawn) [α-2,3-sialyllactose]
[1]; [3]
  kon: 730000 ± 10000 M⁻¹ s⁻¹
[1]; [4]
  kon: 3.49e+06 ± 20000 M⁻¹ s⁻¹
[1]; [5]
  kon: 1.95e+06 ± 10000 M⁻¹ s⁻¹
[1]; [6]
  koff: 0.0003 ± 1e-05 s⁻¹
[1]; [7]
  koff: 0.00137 ± 1e-05 s⁻¹
[1]; [8]
  koff: 0.0009 ± 1e-05 s⁻¹
[2]; [3]
  kon: 30000 M⁻¹ s⁻¹
[2]; [4]
  kon: 2.39e+06 ± 10000 M⁻¹ s⁻¹
[2]; [5]
  kon: 700000 ± 10000 M⁻¹ s⁻¹
[2]; [6]
  koff: 0.00056 ± 4e-05 s⁻¹
[2]; [7]
  koff: 0.00135 ± 1e-05 s⁻¹
[2]; [8]
  koff: 0.00365 ± 4e-05 s⁻¹

Like-named read-outs stand apart in the source and are kept apart here.
